# Laboratory results published in publication PMC4336329 (PLoS ONE, 2015).
# About 2,200 (0.71%) of roughly 310,000 compounds showed an effect of 50% or more. The effect is printed as a negative number. The list shows a part of the results.
# Target: human ether-à-go-go-related gene (hERG) potassium channel (human, UniProt Q12809)
# Assay: primary screen, population patch clamp on CHO cells stably expressing hERG
# human ether-à-go-go-related gene (hERG) potassium channel, sequence (Q12809 whole entry, looked up): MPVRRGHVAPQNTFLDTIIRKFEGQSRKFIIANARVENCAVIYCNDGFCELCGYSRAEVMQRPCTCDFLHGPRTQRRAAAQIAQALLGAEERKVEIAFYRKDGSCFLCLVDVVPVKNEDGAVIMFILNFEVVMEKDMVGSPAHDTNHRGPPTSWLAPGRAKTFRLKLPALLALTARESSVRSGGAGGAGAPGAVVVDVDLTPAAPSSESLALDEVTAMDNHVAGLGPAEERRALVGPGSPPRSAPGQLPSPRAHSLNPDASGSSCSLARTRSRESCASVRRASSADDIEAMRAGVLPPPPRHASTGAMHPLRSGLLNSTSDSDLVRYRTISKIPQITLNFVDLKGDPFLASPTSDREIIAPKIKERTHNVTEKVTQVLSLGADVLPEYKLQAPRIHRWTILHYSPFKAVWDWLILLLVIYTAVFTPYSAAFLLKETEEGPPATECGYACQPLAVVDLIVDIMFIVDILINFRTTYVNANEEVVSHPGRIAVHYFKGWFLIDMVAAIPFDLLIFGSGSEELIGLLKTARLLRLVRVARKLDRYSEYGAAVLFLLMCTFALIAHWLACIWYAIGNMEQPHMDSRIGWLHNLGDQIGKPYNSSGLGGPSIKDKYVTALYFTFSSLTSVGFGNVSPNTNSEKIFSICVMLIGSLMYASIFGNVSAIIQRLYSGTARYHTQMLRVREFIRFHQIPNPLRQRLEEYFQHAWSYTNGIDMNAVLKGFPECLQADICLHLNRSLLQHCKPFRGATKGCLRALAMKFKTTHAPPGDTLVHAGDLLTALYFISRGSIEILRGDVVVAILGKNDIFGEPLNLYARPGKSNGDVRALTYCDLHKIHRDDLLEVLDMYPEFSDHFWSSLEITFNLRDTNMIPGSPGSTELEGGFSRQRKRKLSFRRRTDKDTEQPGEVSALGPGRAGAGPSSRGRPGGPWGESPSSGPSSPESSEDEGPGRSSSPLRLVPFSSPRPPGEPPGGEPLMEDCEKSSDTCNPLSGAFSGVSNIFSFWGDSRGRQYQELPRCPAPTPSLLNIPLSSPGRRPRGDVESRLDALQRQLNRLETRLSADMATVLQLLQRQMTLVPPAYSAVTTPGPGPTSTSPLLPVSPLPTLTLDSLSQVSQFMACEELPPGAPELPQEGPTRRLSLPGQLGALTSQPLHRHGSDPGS
row,Structure (SMILES),"hERG current change (%, negative = inhibition) at 1uM"
1,NC(=O)c1ncc(C(F)(F)F)cc1Cl,14.1%
2,c1ccc(-n2cc(CN3CCC(N4CCOCC4)CC3)c(-c3ccc4c(c3)OCO4)n2)cc1,11.1%
3,COc1ccccc1N1CCN(C(=O)c2ccc3c(c2)NC(=O)C(CSCc2ccccc2C)N3)CC1 (stereo not shown),16.4%
4,CCOC(=O)Cn1nc(C)c(NC(=O)CCc2ccccc2)c1C,9.68%
5,Cc1cc(NC(=O)CSC2=NS(=O)(=O)c3cc(F)ccc3N2)no1,6.52%
6,O=C(O)/C=C/C(=O)Nc1ccccc1-c1ccccc1,3.52%
7,O=C(Nc1ccc(CN2CCOCC2)cc1)c1ccc(-c2ccc(Cl)cc2Cl)o1,6.91%
8,Cn1c(SCC(=O)Nc2ccccc2)nnc1-c1ccc(NC(=O)CCc2ccccc2)cc1,6.68%
9,COc1ccc(-n2nc(C(=O)NCC(=O)N3CCC(C)CC3)c3ccccc3c2=O)cc1Cl,11%
10,COc1ccccc1NC(=O)CN1CCN(Cc2ccccc2)CC1,-45.8%
11,COc1ccc(OC)c(NC(=O)CCNS(=O)(=O)c2ccc3c(c2)oc(=O)n3C)c1,2.95%
12,Cc1ccc(Nc2c(-c3cccnc3)nc3ccc(Br)cn23)cc1,-16%
13,Cc1cccc(NC(=O)C[n+]2ccc(N(C)C)cc2)c1.[Cl-],12.4%
14,O=C(CN1C(=O)C2C3C=CC(C4CC34)C2C1=O)Nc1cccc2ncccc12 (stereo not shown),8.97%
15,CN1C(=O)OC(C)(CCc2ccccc2)C1(C)O (stereo not shown),9.42%
16,CC(=O)Nc1c(Cl)cnn(-c2ccccc2)c1=O,8.8%
17,Cc1nn(C(=O)CCCn2cc([N+](=O)[O-])cn2)c(C)c1Cl,-11.9%
18,O=C(Cn1c2ccc(F)cc2c2nc3n(c(=O)c21)CCS3)Nc1ccccc1C(F)(F)F,6.84%
19,COC(=O)c1cc(S(=O)(=O)N2CCN(c3ccc(F)cc3)CC2)c[nH]1,29.8%
20,O=C(CN1C(=O)CSC1=O)N1CCc2ccccc2C1,9.82%
21,COc1cccc(-n2c(SCC(N)=O)nnc2-c2ccncc2)c1,14.3%
22,CC1(C)CC(=O)C=C(Nc2ccccc2O)C1,16.7%
23,CC1CC(C)CN(c2nc3c(c(=O)n(C)c(=O)n3C)n2CCSc2ncccn2)C1 (stereo not shown),-2.55%

row,Structure (SMILES),"hERG current change (%, negative = inhibition) at 1uM"
1,S=C(Nc1ccccc1)N1CCN(c2ccccn2)CC1,12.8%
2,O=Cc1cccc(OCc2cccc3ccccc23)c1,10.6%
3,COc1ccc(N(C(=O)Nc2ccc(Cl)cc2)C2=NCCC2)cc1,10.7%
4,O=C(O)CN=C(NS(=O)(=O)c1ccc(Cl)cc1)c1ccccc1,2.51%
5,CCOc1cccc(/C=C(\C#N)C(=O)NC2CC2)c1,8.33%
6,C=C1CCC[C@]2(C)C[C@H]3OC(=O)C(CN4CCCCC4CO)[C@H]3CC12 (stereo partly shown),12%
7,O=C(O)CC12CC3CC(C1)CC(n1ncc(NCc4ccc(F)cc4Cl)c(Cl)c1=O)(C3)C2,4.72%
8,CCC(CC)CN1C(N(C)C)=NC[C@@H]1CC(C)C,7.66%
9,COc1ccc(C(c2sc3nc(C)nn3c2O)N2CCC(O)CC2)cc1OC (stereo not shown),18%
10,O=[N+]([O-])c1ccc(N2CCCCC2)cn1,13.9%
11,CCC(C(=O)N1CCc2ccccc2C1)n1nc(C)n2c(cc3occc32)c1=O (stereo not shown),-0.0213%
12,Cc1ccc(CC(=O)CCc2ccccc2)cc1,16.9%
13,O=C(Cc1ccc(Cl)cc1)NC(=S)Nc1ccccc1O,13.4%
14,O=C(NCC(c1ccco1)N1CCN(c2ccc(F)cc2)CC1)OCc1ccccc1 (stereo not shown),8.32%
15,CSCc1ccc(C(=O)N2CCC(N3CCC(C(=O)NC(C)C)CC3)CC2)o1,10.3%
16,Cc1nonc1OCCn1nnnc1N,18.9%
17,CC(=O)N1CCN(c2ccccc2NC(=O)c2cccc3c(Cl)cccc23)CC1,9.13%
18,COc1cc(OC)cc(-c2c(-c3cccs3)c3cc(-c4ccc(OC)c(OC)c4)ccc3n2C)c1,15.8%
19,CC1=NNC(=O)C1CC(=O)N/N=C/C=C/c1ccccc1 (stereo not shown),23.1%
20,Cc1ccccc1C1C(C#N)=C2N=C(N)c3c(sc4c3CCCCC4)N2C2=C1C(=O)CC(C)(C)C2 (stereo not shown),11.7%
21,C=CCSc1nnc(NC(=O)C2CSC3(C)CCC(=O)N23)s1 (stereo not shown),1.66%
22,CCOC(=O)N1CCN(C(=O)COc2ccc(S(=O)(=O)NC(C)C)cc2)CC1,9.95%
23,CC(C)Nc1nc(NC(C)C)nc(N(C)C(N)=O)n1,7.45%

row,Structure (SMILES),"hERG current change (%, negative = inhibition) at 1uM"
1,Cc1cc(C)nc(-n2ncc3c2CC(c2ccc(F)cc2)CC3=O)n1 (stereo not shown),12.7%
2,Cc1ccc(C)n1NC(=O)c1ccccc1[N+](=O)[O-],15.9%
3,CCOC(=O)c1ccc(NC(=O)CCSCCc2ccccn2)cc1,12%
4,CCc1ccc(N(CC)C(=O)c2cn(C)c(=O)c3ccccc23)cc1,5.72%
5,COc1ccc(C(=O)NC2CCN(C(=S)Nc3ccc(C)cc3)CC2)cc1,17.6%
6,CCOc1ccc(NS(=O)(=O)c2ccc(NC(=O)c3ccccc3C(=O)O)cc2)cc1,9.36%
7,O=C(c1cccc(-c2nnc(-c3ccccc3)o2)c1)N1CCCCCC1,-6.98%
8,Cl.O=C(NCCN1CCCC1)C1COc2ccccc2O1 (stereo not shown),20.6%
9,CC(C)OC(=O)C1C2C=CC3(CN(C(C)c4ccc(Br)cc4)C(=O)C13)O2 (stereo not shown),7.23%
10,CCCCCCCOc1ccc(OC(=O)c2ccncc2)cc1,16.3%
11,O=c1c2ccccc2nc(N2CCN(c3ccccc3)CC2)n1Cc1ccccc1,5.54%
12,Cc1ccc(OCCN2CCOCC2)cc1C,12.7%
13,CCOC(=O)C1CCCN(C(=O)c2cc(Cl)ccc2NC(=O)C2=C(C)OCCS2)C1 (stereo not shown),14.2%
14,Cc1cc(OCC(=O)Nc2cnn(CCCC(=O)O)c2)ccc1[N+](=O)[O-],17.2%
15,COc1ccc(-n2c(C)cc(/C=N/Nc3nnc(C)n3N)c2C)cc1.Cl,18.8%
16,COc1ccccc1CNC(=O)c1cccc(S(=O)(=O)N(C)c2ccccc2)c1,-1.21%
17,CCC(Sc1nccn1C)C(=O)Nc1ccc(Cl)cn1 (stereo not shown),5.95%
18,O=C(CN1CC(c2ccccc2)CC1=O)NCc1ccc(F)cc1 (stereo not shown),2.44%
19,CC(C)(C)C(CCl)C(=O)NN=C(c1ccccc1)c1ccccc1 (stereo not shown),10.4%
20,CC(=O)Nc1nc(SCC(=O)NCC2CCCO2)[nH]c(=O)c1NC(=O)c1cccs1 (stereo not shown),17.5%
21,CCOC(=O)c1sc(NNC(=O)c2ccc(C)cc2)nc1C,10.5%
22,CC1CCCCN1S(=O)(=O)c1ccc2c(c1)C(C)(C)C(=O)N2C (stereo not shown),10.9%
23,COc1ccc(C(=O)C2CCCN(Cc3ccc(C)s3)C2)cc1OC (stereo not shown),-32.5%

row,Structure (SMILES),"hERG current change (%, negative = inhibition) at 1uM"
1,COc1cc(OC)cc(C(=O)NC(C(=O)OCn2nnc3ccccc3c2=O)C(C)C)c1 (stereo not shown),-0.167%
2,O=C(Nc1cccc(Cl)c1)Nc1cccc(C(=O)O)c1,16%
3,CN1CN=C(N[N+](=O)[O-])N(Cc2ccco2)C1,9.01%
4,COC(=O)N/N=C/c1c[n+]([O-])c2ccccc2[n+]1[O-],14.4%
5,Fc1ccc2nc(Nc3ccccc3)sc2c1,0.228%
6,C=CCn1c(-c2ccc(OC)cc2)nc2ccccc21,-0.807%
7,COc1ccc(C(CNC(=O)CCNC(=O)c2ccccc2OC)N2CCCC2)cc1 (stereo not shown),-2.95%
8,C[C@H](NC(=O)Cn1cncn1)c1ccccc1,9.77%
9,COc1ccc2c(c1)CCc1cn3nc(C)cc3nc1-2,13.8%
10,COc1ccccc1N1CCN(C(=O)CCC(=O)Nc2nnc(C(C)C)s2)CC1,7.37%
11,OCCNC(=S)Nc1ccc2nsnc2c1,23.9%
12,Cc1ccc(Nc2cc(-n3nc(C)cc3C)ncn2)cc1,12.9%
13,O=C(Nc1ccccc1)Nc1cccc(-c2cn3cccnc3n2)c1,38.3%
14,CCOc1ccc(-c2nc(=S)[nH][nH]2)cc1,11%
15,Cc1cccc(Nc2nc(N)c([N+](=O)[O-])c(N3CCN(C)CC3)n2)c1,-21.5%
16,COc1ccc(OC)c(S(=O)(=O)NCc2ccc(N3CCN(C)CC3)cc2)c1,2.16%
17,COC(=O)c1cn(C(=O)c2ccccc2)c2ccccc12,11.2%
18,COc1ccc(-c2cc(-c3ccc(OC)cc3)c(C#N)c(SC)n2)cc1,4.9%
19,CCOC(=O)c1c(-c2ncc(C(F)(F)F)cc2Cl)noc1C,14.2%
20,Cc1nnc(NC(=O)CSc2nnc(Cc3ccccc3)n2-c2ccccc2)s1,20.9%
21,Cc1cc(C)n(Cc2ccc(C(=O)Nc3ccc(Br)cc3C)o2)n1,1.34%
22,COc1ccc(-c2[nH]ncc2CN(C)Cc2cccnc2)c(F)c1,8.1%
